Assay results: article PMC9886550, “Molecular mechanism of topoisomerase poisoning by the peptide antibiotic albicidin” (Nature Catalysis, 2023)
Where two headings read alike, the source gives them in different places. Further values from the same series stand in other lists.

Target: T1, WT E. coli gyrase (Escherichia coli, UniProt P0AES4+P0AES6)
T1 construct: alternative cryo-EM approach involving full-length E. coli gyrase; 10-His (cleaved yes); Twin-Strep (cleaved yes); made in house
Format: biochemical
Protocol: For DNA gyrase supercoiling assays to characterize gyrase mutants, 15 µl reactions were set up containing 250 ng of relaxed DNA, E. coli gyrase supercoiling buffer (35 mM Tris–Cl pH 7.5, 24 mM KCl, 4 mM MgCl2, 2 mM DTT, 1.8 mM spermidine, 1 mM ATP, 6.0% (w/v) glycerol, and 0.1 mg ml^−1 BSA), gyrase subunits and inhibitors. Concentrations of enzyme and inhibitor are stated in the figure legends. Inhibitors were diluted in the following way to reduce the chance of precipitation: stock compound in 100% DMSO was diluted to 5 mM in 100% DMSO. This compound solution was diluted to 1 mM by stepwise addition of 1 µl of 50% DMSO with thorough mixing via pipetting after each addition. All subsequent dilutions up to 100 µM were performed in the same way using H2O. After this point, compounds were stable and could be diluted in the normal way. Reactions were incubated at 37 °C for 30 min before stopping with 15 µl chloroform:isoamyl alcohol (24:1 v/v) and 15 µl of STEB (40% (w/v) sucrose, 100 mM Tris–Cl pH 8, 10 mM EDTA, 0.5 mg ml^−1 bromophenol blue).
Cleavage assays were set up in the same way as supercoiling assays with some modifications. The concentration of enzyme was increased 4-fold relative to the supercoiling assay and reactions were incubated for 1 h before addition of 0.2% SDS and proteinase K (0.2 mg ml^−1) and further incubation at 37 °C for 30 min to trap cleavage complexes. Reactions were stopped in the same way as supercoiling assays.
Results were visualized by agarose gel electrophoresis: 1% agarose Tris-acetate-EDTA (TAE) gels were run without ethidium bromide (supercoiling) or with 10 µg ml^−1 ethidium bromide (cleavage) at 8 V cm^−1.
DNA cleavage gels were analysed using densitometry (ImageJ). Experiments were carried out in triplicate and expressed as mean ± s.d. Curves were fitted using OriginPro 2021 (Origin Lab) according to a modified Hill equation:1 y=cI+(cF−cI)[…]/(k^n+x^n) where y is the percentage of cleaved DNA, cI is the initial cleavage, cF is the final cleavage, k is the CC50 (the concentration of inhibitor that results in cleavage of 50% of DNA), n is a slope factor and x is the inhibitor concentration.

## CC(C)Oc1c(NC(=O)c2ccc(NC(=O)[C@H](Cc3c[nH]nn3)NC(=O)c3ccc(NC(=O)c4ccc(C#N)cc4)cn3)cn2)ccc(C(=O)Nc2ccc(C(=O)O)cc2)c1O [Albi-1]
0.00025 µM, average of 3
  % cleaved DNA Average: 5.528%
0.0005 µM, average of 3
  % cleaved DNA Average: 6.752%
0.001 µM, average of 3
  % cleaved DNA Average: 9.419%
0.005 µM, average of 3
  % cleaved DNA Average: 35.7477%
0.01 µM, average of 3
  % cleaved DNA Average: 36.7121%
0.05 µM, average of 3
  % cleaved DNA Average: 67.2109%
0.1 µM, average of 3
  % cleaved DNA Average: 69.4506%
0.5 µM, average of 3
  % cleaved DNA Average: 72.578%
1 µM, average of 3
  % cleaved DNA Average: 65.4906%

## COc1c(NC(=O)c2ccc(NC(=O)c3ccc(NC(=O)[C@H](Cc4c[nH]nn4)NC(=O)c4ccc(NC(=O)c5ccc6cc(O)ccc6c5)cc4)cn3)c(OCCN)c2O)ccc(C(=O)O)c1O [Albi-2]
Albi-2 0.001 µM
  % cleaved DNA Average: 4.251%
Albi-2 0.005 µM
  % cleaved DNA Average: 4.814%
Albi-2 0.01 µM
  % cleaved DNA Average: 6.4087%
Albi-2 0.05 µM
  % cleaved DNA Average: 21.2457%
Albi-2 0.1 µM
  % cleaved DNA Average: 31.0834%
Albi-2 0.5 µM
  % cleaved DNA Average: 69.2374%
Albi-2 1 µM
  % cleaved DNA Average: 71.7749%
Albi-2 5 µM
  % cleaved DNA Average: 77.8853%
Albi-2 10 µM
  % cleaved DNA Average: 77.3078%
